This is one part of the list. One pool of 16,384 single-stranded DNAs met each Rep nickase domain in vitro for 1 h at 37 °C with 3 µM enzyme; only the middle of the 90-letter strands is printed. Uncut reads are compared with the no-enzyme pool on a log2 scale; the lower, the more was cut; hits are not called. The scaling is to total reads; where an enzyme cuts many sequences, the uncut ones exceed 0.
Each sequence was assayed on T1, Rep nickase domain of tomato golden mosaic virus (assay: uncleaved DNA left, log2 of reads against the no-enzyme library (log2 ratio); higher = less cleavage (more negative = more Rep cleavage of the k-mer); sequences stand for … in CTCGTCCG…ACCGGAGA).
T1 sequence (Rep 1-124, printed without the tag): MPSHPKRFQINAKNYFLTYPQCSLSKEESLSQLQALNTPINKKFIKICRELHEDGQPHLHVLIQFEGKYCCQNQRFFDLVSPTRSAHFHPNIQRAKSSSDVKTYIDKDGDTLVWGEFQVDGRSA
Protocol: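 A pool of 90-nt single-stranded DNAs with seven random bases just before the constant AC of the nick site (name = the seven bases) was cut by 3 µM recombinant His6-SUMO-tagged Rep nickase domain (300 nM DNA, 50 mM HEPES pH 8.0, 50 mM NaCl, 1 mM MnCl2, 1 h, 37 °C, three replicates). Uncut DNA was amplified and sequenced.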

| Sequence | uncleaved DNA left (log2) |
| --- | --- |
| GAAGGTA | 0.0723 |
| ATACTTC | 0.0345 |
| CTACCTT | 0.143 |
| TTAGAAC | 0.0221 |
| GACCCAT | -0.00727 |
| CCACAAA | -0.0662 |
| GATTGGG | 0.0935 |
| CACTTCT | -0.272 |
| CTTAGTT | 0.00483 |
| CACCACT | -0.296 |
| CGCGCTG | 0.0145 |
| AAATAGT | -3.96 |
| GCAAAGT | 0.0136 |
| CGCTCCT | -0.201 |
| AGAGCTC | 0.0564 |
| CGACCCC | -0.012 |
| GGATTGT | 0.081 |
| TCTACAA | 0.0187 |
| CTATGTT | -3.07 |
| CCTCGCG | 0.00594 |

| Sequence | uncleaved DNA left (log2) |
| --- | --- |
| TATAAAC | 0.0866 |
| TGAGAGA | 0.111 |
| TTGAACT | -0.0726 |
| CGCTGAA | -0.118 |
| CGTTATG | -0.0376 |
| TAGTGGC | -0.0868 |
| CCATAGG | -0.0661 |
| GAGCCAT | 0.00317 |
| TAGCCGT | -0.0359 |
| CGGATCG | 0.0464 |
| TGAGAAG | 0.116 |
| TGTGGGA | 0.0489 |
| AAGGCAG | 0.172 |
| GCGCTTA | -0.128 |
| ATATTAA | 0.142 |
| TATGCTG | -0.0274 |
| CTCCACG | 0.0374 |
| GGGATGC | 0.025 |
| AGGGTGG | -0.0331 |
| CCAATAC | 0.0502 |

From the supplement of paper PMC7826260
